In all, about 230,000 compounds went through this assay and about 1,500 (0.65%) were called active. The shares of active, inactive and inconclusive entries below differ from those in the screen. The call rests on the fitted dose curve; in most records, active means well fitted inhibition curve with a large enough effect; inconclusive means small, poorly fitted or top-dose-only effect; inactive means no such curve, though single readings can be large or run the other way. Where the call is inconclusive, the potency comes from a doubtful curve fit.
Target: Lethal(3)malignant brain tumor-like protein 1 (Homo sapiens) (UniProt Q9Y468)
UniProt Q9Y468, sequence (Q9Y468 whole entry, looked up): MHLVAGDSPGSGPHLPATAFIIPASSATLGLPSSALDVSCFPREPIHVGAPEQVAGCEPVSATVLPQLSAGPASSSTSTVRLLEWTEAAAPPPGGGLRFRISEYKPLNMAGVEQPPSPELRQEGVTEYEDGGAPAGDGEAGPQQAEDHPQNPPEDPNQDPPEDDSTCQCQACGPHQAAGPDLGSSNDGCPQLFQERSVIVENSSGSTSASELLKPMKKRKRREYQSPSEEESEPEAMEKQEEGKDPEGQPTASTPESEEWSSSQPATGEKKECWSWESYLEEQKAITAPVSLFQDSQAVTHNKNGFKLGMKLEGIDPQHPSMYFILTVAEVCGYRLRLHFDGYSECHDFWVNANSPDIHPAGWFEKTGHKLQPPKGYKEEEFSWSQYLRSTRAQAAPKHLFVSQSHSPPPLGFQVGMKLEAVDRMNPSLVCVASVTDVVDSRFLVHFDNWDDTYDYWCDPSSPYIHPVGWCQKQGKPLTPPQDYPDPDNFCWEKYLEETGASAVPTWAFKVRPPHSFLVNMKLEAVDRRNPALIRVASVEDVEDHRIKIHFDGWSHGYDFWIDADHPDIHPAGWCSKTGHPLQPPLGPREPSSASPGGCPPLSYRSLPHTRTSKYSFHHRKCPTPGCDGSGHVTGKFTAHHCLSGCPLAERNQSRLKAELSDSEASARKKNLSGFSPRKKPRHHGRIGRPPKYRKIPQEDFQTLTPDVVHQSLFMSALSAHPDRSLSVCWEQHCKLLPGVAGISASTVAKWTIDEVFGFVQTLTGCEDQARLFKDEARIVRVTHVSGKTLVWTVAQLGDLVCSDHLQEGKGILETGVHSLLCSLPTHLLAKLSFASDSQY
Experiment: qHTS Assay for the Inhibitors of L3MBTL1; further: nearly all actives have a fitted effect of over 60% in size
Settings: AlphaScreen L3MBTL1–H3K9me1 peptide binding; activity, negative = inhibition: at 57.1 µM (top of the series)
How it was run: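 L3MBTL1 50 nM + b-AHA-H3(1-15)K9me1 75 nM, 30 min RT; compound added, 30 min RT; streptavidin donor/Ni-chelate acceptor beads 10 ug/mL each final, 30 min RT dark; AlphaScreen read.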
On the % scale 0 is the no-effect control and ±100 the full control effect; potency means the concentration at half of the fitted maximal effect; tags describe the fitted curve by direction and shape.

Row | Compound | Potency | activity, negative = inhibition
1 | COc1ccc(/C=N/N(Cc2ccccc2)c2ccccc2)cc1O | inconclusive: 39.8 µM [inhibitor, single point] | 
2 | COc1cccc(Oc2cc(NN3CCCCC3)c([N+](=O)[O-])cc2[N+](=O)[O-])c1OC | inconclusive: 25.1 µM [inhibitor, partial curve] | 
3 | CC(=O)NC(=S)Nc1ccc(NC(=O)c2cccs2)cc1 |  | inactive: 7.8%
4 | Cc1ccc(NC(=O)COC(=O)CC2CCCC2)cc1F | inconclusive: 3.16 µM [inhibitor, partial curve] | 
5 | COc1cccc(N2CCN(S(=O)(=O)c3cc4c(cc3C)N(C)CCO4)CC2)c1 | inconclusive: 31.6 µM [inhibitor, partial curve] | 
6 | Cc1ccc(NC(=O)CN(C)C(=O)Cn2ncc(Cl)c(Cl)c2=O)cc1 | inconclusive: 39.8 µM [inhibitor, single point] | 
7 | O=C(NC(=S)N1CCCc2ccccc21)c1ccc([N+](=O)[O-])cc1 | inconclusive: 39.8 µM [inhibitor, single point] | 
8 | CCN1/C(=C/C=C/c2oc3ccc4ccccc4c3[n+]2CC)Oc2ccc3ccccc3c21 | inconclusive: 7.94 µM [inhibitor, full curve, poor fit] | 
9 | CC(=O)N1CC=CC1(C)C(=O)O (centres undefined) |  | inactive: 3.14%
10 | S=c1[nH]nc(-c2ccco2)n1/N=C/c1cccs1 |  | inactive: -9.32%
11 | CCCOc1ccc(C(=O)Nc2c[nH]c(=O)[nH]c2=O)cc1 |  | inactive: 5.69%
12 | CNc1ccc(Br)cc(C(=O)/C=C/c2cccc(OC)c2OC)c1=O | inconclusive: 35.5 µM [inhibitor, single point] | 
13 | COc1cc(C2NC(=O)C(C#N)=C(Nc3cccc(C)c3)S2)ccc1O (centres undefined) | inactive | 
14 | CCCOc1cccc(C(=O)N(Cc2ccco2)C2CCS(=O)(=O)C2)c1 (centres undefined) | inconclusive: 10 µM [inhibitor, partial curve] | 
15 | Cc1ccn2c(=O)nc(SCC(=O)Nc3ccc4c(c3)OCCO4)nc2c1 | inconclusive: 25.1 µM [inhibitor, partial curve] | 
16 | COc1ccccc1Nc1nc(N)nc(CN(C)C2CCCCC2)n1 | active: 15.8 µM | 
17 | CCC(=O)c1ccc(OCC(=O)Nc2nc(-c3cccnc3)cs2)cc1 | inconclusive: 22.4 µM [inhibitor, partial curve] | 
18 | CCSc1nc2ccc(N3C(=O)C4C5C=CC(C5)C4C3=O)cc2s1 (centres undefined) |  | inactive: 1.1%
19 | COC(=O)c1ccccc1S(=O)(=O)N(Cc1cc2ccc(OC)cc2[nH]c1=O)CC1CCCO1 (centres undefined) | inconclusive: 5.62 µM [inhibitor, single point] | 
20 | Clc1ccc2c(c1)-c1nnc(Br)n1-c1ccccc1S2 | inconclusive: 5.62 µM [inhibitor, single point] | 
21 | CCn1c(O)c(C=NC2CCCC(C)C2C)sc1=S (centres undefined) | inconclusive: 17.8 µM [inhibitor, partial curve] | 
22 | O=C(NCc1nnc(SCC(=O)N2CCC(Cc3ccccc3)CC2)o1)c1ccccc1F |  | inactive: 7.52%
23 | O=C(CSc1ncnc2scc(-c3ccccc3)c12)N1CCN(Cc2ccc3c(c2)OCO3)CC1 | inconclusive: 28.2 µM [inhibitor, single point] | 

Row | Compound | Potency | activity, negative = inhibition
24 | Cc1cc(C)nc(SCc2nc3nc(C)cc(C)n3c2Br)n1 |  | inactive: 3.27%
25 | Cc1ccc(NC(=O)CN2C(=O)S/C(=C\c3cccn3-c3cccc(C(=O)O)c3)C2=O)cc1C | inconclusive: 12.6 µM [inhibitor, partial curve] | 
26 | COc1ccccc1CC(=O)Nc1ccc(S(=O)(=O)N(C)C2CCN(C)CC2)cc1 | inconclusive: 39.8 µM [inhibitor, single point] | 
27 | Cc1ccc(-n2nc(C)c3c2OC(N)=C(C#N)C3c2ccc(C)o2)cc1 (centres undefined) | inconclusive: 15.8 µM [inhibitor, partial curve] | 
28 | CN1CCc2c(sc(NC(=O)CS(=O)(=O)c3ccc(F)cc3)c2C(N)=O)C1 | inconclusive: 22.4 µM [inhibitor, single point] | 
29 | O=C(Oc1c(CN2CCOCC2)cc(Cl)c2cccnc12)c1ccccc1Br | active: 31.6 µM | 
30 | O=C(CN1CCN(c2ccccc2F)CC1)c1ccc2cc[nH]c2c1 |  | inactive: -0.016%
31 | CC(=O)N(CN1C(=O)c2ccc([N+](=O)[O-])cc2C1=O)c1ccc(F)cc1 | inconclusive: 6.31 µM [inhibitor, single point] | 
32 | CCOc1ccc2nc(SCC3CC3(Cl)Cl)[nH]c2c1 (centres undefined) |  | inactive: -4.21%
33 | CCOC(=O)N1CCN(C(=O)Cc2cccc3ccccc23)CC1 |  | inactive: -2.63%
34 | Cc1ccc(NC(=O)c2ccn(C)n2)c(Br)c1 | inconclusive: 6.31 µM [inhibitor, full curve, poor fit] | 
35 | Cc1ccc(C(=O)N/C(=C\c2ccc(C)o2)C(=O)O)cc1 | inconclusive: 25.1 µM [inhibitor, single point] | 
36 | COc1ccc(-c2csc(NC(=O)c3cccc(S(=O)(=O)N4CCN(C)CC4)c3)n2)cc1 | inconclusive: 25.1 µM [inhibitor, single point] | 
37 | CN1CCN(/N=C/c2c3ccccc3c(Cl)c3ccccc23)CC1 | inconclusive: 12.6 µM [inhibitor, partial curve] | 
38 | CCOc1ccc(C(=S)NC2CCCCC2)cc1 |  | inactive: -0.949%
39 | Cc1nc(-c2ccc(F)cc2)c(CC(=O)N2CCN(S(=O)(=O)c3cccc(Cl)c3)CC2)s1 | inconclusive: 0.794 µM [inhibitor, single point] | 
40 | COc1cc(OC)cc(C2C(C#N)=C(N)Oc3n[nH]c(-c4cccnc4)c32)c1 (centres undefined) | inconclusive: 3.16 µM [inhibitor, single point] | 
41 | CCN1CCN(c2nc(-c3ccccn3)nc3ccccc23)CC1 | inconclusive: 8.91 µM [inhibitor, full curve] | 
42 | CCC(NC(=O)Nc1ccc(O)cc1)(C(F)(F)F)C(F)(F)F | inconclusive: 28.2 µM [inhibitor, single point] | 
43 | Cc1nnc(NC(=O)c2cc(-c3ccco3)nc3ccccc23)s1 | active: 6.31 µM | 
44 | CCOc1ccc2[nH]c3c(N4CCc5ccccc5C4)ncnc3c2c1 | inconclusive: 28.2 µM [inhibitor, partial curve] | 
45 | CN(C)Cc1nnnn1-c1ccccc1 |  | inactive: 7.06%
46 | Cc1ccc(-c2cc(-c3ccccc3C)[nH]n2)c(O)c1 | inconclusive: 6.31 µM [inhibitor, single point] | 

Row | Compound | Potency | activity, negative = inhibition
47 | CNC(=O)COC(=O)c1c2c(nc3ccccc13)CCC2 | inconclusive: 31.6 µM [inhibitor, single point] | 
48 | COc1ccc2[nH]c3c(c2c1)CCN1C(=O)N([C@@H](C)C(=O)NC2CC2)C(=O)[C@]31C | inconclusive: 39.8 µM [inhibitor, partial curve, poor fit] | 
49 | Cn1c(=O)c2c(nc(CN3CCN(c4ccccc4F)CC3)n2CCN2CCOCC2)n(C)c1=O | inconclusive: 5.62 µM [inhibitor, single point] | 
50 | Cc1nc(-c2ccccc2)sc1-c1ccn[nH]1 |  | inactive: 5.97%
51 | Cc1ccc(NC(=S)c2nc3ccccc3[nH]2)cc1 | inconclusive: 28.2 µM [inhibitor, partial curve] | 
52 | O=c1c2c(nc3cc(-c4ccccc4Cl)[nH]n13)CCS2 | inconclusive: 28.2 µM [inhibitor, single point] | 
53 | Oc1ccc(NCc2cccc(OCc3ccc(F)cc3)c2)cc1 | inconclusive: 25.1 µM [inhibitor, single point] | 
54 | O=C1c2cccc3c(N4CCOCC4)c([N+](=O)[O-])cc(c23)C(=O)N1c1cccc2ccccc12 | inconclusive: 6.31 µM [inhibitor, partial curve] | 
55 | C[N+](C)(C)CCOP(=O)(O)OP(=O)([O-])OC[C@H]1O[C@@H](n2ccc(N)nc2=O)[C@H](O)[C@@H]1O |  | inactive: -3.74%
56 | Cc1cc(C)c([N+](=O)[O-])cc1-c1ccc(/C=N/c2c(-c3ccco3)nc3ccccn23)o1 | inconclusive: 31.6 µM [inhibitor, single point] | 
57 | NC(=O)C(CC(=O)O)NC(=O)[C@@H]1CCCCNc2c(I)cc([N+](=O)[O-])cc2C(=O)N[C@@H](CO)C(=O)NCC(=O)N1 (some centres undefined) | inconclusive: 25.1 µM [inhibitor, single point] | 
58 | Fc1ccc(C2NCCn3cccc32)cc1 (centres undefined) |  | inactive: -7.54%
59 | COc1ccc(NC(=O)c2cc(S(=O)(=O)Nc3ccc(OC)cc3)cs2)cc1 | inconclusive: 39.8 µM [inhibitor, partial curve] | 
60 | CCOC(=O)/C(=C\c1cccc(O)c1)c1nc2sc(C)c(C)c2c(=O)[nH]1 |  | inactive: -9.77%
61 | Cc1ccc(-c2nn(-c3ccccn3)c(=O)c3ccccc23)cc1 | inconclusive: 7.08 µM [inhibitor, partial curve] | 
62 | c1ccc(-c2cn3c(n2)SCC3)cc1 | inconclusive: 8.91 µM [inhibitor, full curve, poor fit] | 
63 | Cc1ccc(S(=O)(=O)c2c(C)cc(C)nc2N2CCCCC2)cc1 | inconclusive: 6.31 µM [inhibitor, single point] | 
64 | Cc1ccc(-c2csc(NC(=O)C3=NN(c4ccccc4)C(=O)CC3)n2)cc1 |  | inactive: -14.3%
65 | COc1ccc2ccc3c(c2c1)N=C[C@]1(O3)N(C)c2ccccc2C1(C)C |  | inactive: -0.103%
66 | CN1CCN(C(=S)c2cn(Cc3cccc(F)c3)c3ccccc23)CC1 | inconclusive: 22.4 µM [inhibitor, single point] | 
67 | O=C(c1cccc(F)c1)N1CCCN(C(=O)c2cccc(F)c2)CC1 |  | inactive: 2.67%
68 | COc1ccc(C(=O)COC(=O)CNC(=O)c2ccc(C)s2)c(OC)c1 | inconclusive: 35.5 µM [inhibitor, single point] | 
69 | COc1ccc(Cn2nnc3c(=O)[nH]c(C(=O)NCCc4ccc(F)cc4)nc32)cc1OC |  | inactive: 2.74%

— PubChem BioAssay AID485360 (National Center for Advancing Translational Sciences (NCATS), 2010)
